The campaign covered roughly 44,000 compounds. About 340 (0.77%) were called active. Not shown: some 5% with an inconclusive outcome. Calls follow the shape of the dose curve; as a rule, active = well fitted inhibition curve with a large enough effect; inconclusive = small, poorly fitted or top-dose-only effect; inactive = flat fitted curve, though single readings scatter. The list shows a part of the results.
Test: Acumen qHTS Assay for Inhibitors of the mTORC1 Signaling Pathway in MEF (Tsc2-/-, p53-/-) Cells: Sytravon;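 also: plate controls were DMSO for no effect and rapamycin for full effect; nearly all actives have a fitted effect of over 50% in size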
Settings: phospho-rpS6 immunofluorescence/PI, 24 h; series mostly up to 38.3 µM; activity change, negative = inhibition: at the top concentration
Summary of the method: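 Compounds act on Tsc2-/-, p53-/- fibroblasts carrying an empty vector for 24 h before fixation and dual staining for phospho-S6 and DNA (propidium iodide). Values are percentages of cells above a rapamycin-defined pS6/PI threshold.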

Activity change, negative = inhibition, inactive:
COc1cc(CNC(=O)c2ccc(NC(=O)N3CCCCc4ccccc43)cc2)cc(OC)c1OC -24%
CCc1ccccc1NC(=O)C1CCCN(S(=O)(=O)c2ccc3[nH]c(=O)ccc3c2)C1 (stereo not drawn) 1.39%
Cc1ccc(OCC(=O)NCC(=O)OCc2cc(=O)n3nc(CC(C)C)sc3n2)cc1 -19.4%
O=C(c1cccs1)N1CCCc2cc(NS(=O)(=O)c3cc(F)ccc3F)ccc21 2.1%
O=C(NCCc1ccc(Cl)cc1)c1cnc2sc(N3CCCC3)nn2c1=O -3.61%
CC(=O)c1ccc(NC(=O)C2CCN(S(=O)(=O)c3c(C)noc3/C=C/c3ccc(C)cc3)CC2)cc1 0.666%
COc1ccc(CNC(=O)CN2C(=O)COc3ccccc32)c(OC)c1 0.289%
Cc1ccc2nc(NC(=O)CSc3cc(C)[nH]c(=O)n3)sc2c1 2.96%
Oc1ccccc1-c1nc2cnccn2c1Nc1ccc(Cl)cc1 0.505%
COc1ccc(-c2nn3c(-c4ccccc4)nnc3c3ccccc23)cc1 1.74%
CCOc1ccc(CNC(=O)CCCn2c(=O)c3cccn3c3cccnc32)cc1 -14.2%
O=S(=O)(NCCc1csc(-c2cccc(F)c2)n1)c1cc(F)ccc1F -8.82%
Cc1ccccc1Cn1c(SCc2ccc(C(=O)N3CCCCC3)cc2)nc2ccncc21 0.229%
CCCOc1ccc(OC(=O)c2ccc(-c3ccc(CCC)cn3)cc2)cc1 3.18%
COc1ccc(CCNC(=O)c2cc(Nc3ccccc3)nc3ccccc23)cc1OC 1.08%
O=C1CCc2cc(S(=O)(=O)NCc3ccccc3)cc3c2N1CC3 -0.204%
COc1cc(NC(=O)CCNC(=O)Cn2ccc3ccccc3c2=O)cc(OC)c1OC -8.53%
COC(=O)c1c(NC(=O)CCCOc2ccc(C)cc2)sc2c1CCCC2 -3.38%
CCn1c(C(=O)Nc2ccccc2C(=O)OC)cc2sc(Cl)cc21 -1.74%
Cc1nc2c(c(C)nn2-c2ccccc2)c(C)c1CCC(=O)Nc1ccccc1 -8.33%
Cc1ccc(NC(=O)Cn2c(=O)n(Cc3ccc(F)cc3)c(=O)c3cccnc32)cc1C -0.3%
O=C(Nc1ccc(S(=O)(=O)N(Cc2ccccc2)c2ccccc2)cc1)c1ccccc1F -6.24%
CCCn1ccc2c(OCC(=O)Nc3ccccc3C(=O)OCC)cccc2c1=O -8.68%
O=C(CCCCn1c(=O)c2ccccc2n(Cc2ccc(F)cc2Cl)c1=O)NCCc1ccc(Cl)cc1 -16.3%
COC(=O)c1ccccc1NC(=O)CCCn1c(C)c2cnn(-c3ccccc3)c(=O)c2c1C -16.6%
COc1ccccc1CNC(=O)Cc1c(C)c2cc3c(C)coc3c(C)c2oc1=O -0.11%
COc1ccc(CNC(=O)CC(C)CC2=NS(=O)(=O)c3ccccc3N2)cc1 (stereo not drawn) 0.34%
Cc1ccccc1Cn1c(=O)n(Cc2ccco2)c(=O)c2sc3ccccc3c21 -0.26%
CCOc1ccc(S(=O)(=O)Nc2ccc3c(c2)CCCN3C(=O)c2cccs2)cc1 0%
CCOc1ccc(CCNC(=O)C2Cc3ccccc3N2C(=O)CC)cc1 (stereo not drawn) 0%
CCOC(=O)c1ccc(Nc2c(-c3ccc(OC)cc3)nc3nc[nH]n23)cc1 -0.645%
CCC(=O)N1CCc2cc(CNC(=O)Nc3cc(OC)c(OC)c(OC)c3)ccc21 -7.05%
CCN(CC)C(=O)C1=C(C)Nc2nc3ccccc3n2C1c1ccccc1F (stereo not drawn) 1.4%
CCOC(=O)c1cc2c(=O)n3ccccc3nc2n(CCCOC)c1=NC(=O)c1c(-c2c(F)cccc2Cl)noc1C 3.1%
O=C(Cc1ccc(NC(=O)N2CCCCc3ccccc32)cc1)NCc1cccc(Br)c1 -11.5%
Cc1cccc(N2CCN(C(=O)Cn3c(C)c4cnn(-c5ccccc5)c(=O)c4c3C)CC2)c1C 5.05%
COc1ccc(CNC(=O)C(=O)NCC(c2ccco2)S(=O)(=O)c2cccs2)cc1 (stereo not drawn) 1.86%
CCCCn1c(SCc2ccccc2C)nc2ccsc2c1=O 6.67%
Cc1nnc(SCc2cc(=O)c3cc(F)ccc3[nH]2)n1C 4.86%
Cc1ccc(NC(=O)c2ccc3c(O)c(S(=O)(=O)c4ccc(Cl)cc4)c(=O)[nH]c3c2)cc1 -6.49%
CCOC(=O)C1CCCN(C(=O)Cn2ncc3c(C)n(Cc4ccc(Cl)cc4)c(C)c3c2=O)C1 (stereo not drawn) -0.842%
Cc1ccc(NS(=O)(=O)c2ccc3c(c2)CCN3C(=O)C2CC2)c(C)c1 0.917%
CC1=C(C#N)C(NC(=O)c2ccccc2)(C(F)(F)F)C(=O)N1 (stereo not drawn) -1.95%
C=C(C)Cn1c(SCC(=O)c2ccc(Br)cc2)nc2sc3c(c2c1=O)CCCC3 -2.13%
CC(C)c1ccccc1NC(=O)C(Cc1c[nH]c2ccccc12)NC(=O)OC(C)(C)C (stereo not drawn) -12.8%
Cc1ccc(S(=O)(=O)c2nc(-c3cccs3)oc2SCc2ccc(F)cc2)cc1 -0.348%
COc1ccc(NC(=O)c2ccc(NC(=O)N3CCSc4ncccc43)cc2)cc1 -9.97%
COCCn1c(CNC(=O)c2cccc(C)c2)nc2cccnc21 0.0882%
COCCNC(=O)C1CCN(Cc2cc3ccccc3n2Cc2ccc(C)cc2)CC1 -1.01%
COc1ccccc1NC(=O)C1=C(C)Nc2nc(SCc3ccccc3)nn2C1c1cccc(O)c1 (stereo not drawn) -2.17%
COc1ccc(NC(=O)c2nnn(Cc3nc(-c4cc(OC)c(OC)c(OC)c4)oc3C)c2C)cc1Cl -9.12%
COc1ccccc1CNC(=O)c1ccc2[nH]c(C)c(C)c2c1 -1.17%
O=C(COc1ccc(F)cc1)Nc1nnc(S(=O)(=O)N2CCCC2)s1 4.44%
COc1ccc(OC)c(NS(=O)(=O)c2ccc(-n3cccn3)cc2)c1 -12.2%
CCCCNC(=O)C(CC)Sc1nc2ccccc2c(=O)n1Cc1ccco1 (stereo not drawn) -0.0875%
COc1cc(NC(=O)C2CCN(S(=O)(=O)Cc3ccccc3)CC2)c(OC)cc1Cl 2.05%
COCCNC(=O)c1sc2ncccc2c1-n1c(C)ccc1C -1.27%
CCC(C)n1c(=O)c2sccc2n2c(CCCC(=O)NCc3ccccc3Cl)nnc12 (stereo not drawn) 5.33%
Cc1ccc(C(=O)c2sc(Nc3ccccc3)c(S(=O)(=O)c3ccccc3)c2N)c(C)c1 -16.2%
CCOC(=O)c1cccc(NC(=O)Cn2c(=O)c3cccn3c3ccccc32)c1 -19.8%
Cc1cccc(N(C)S(=O)(=O)c2nnc(NC(=O)c3cccs3)s2)c1 7.64%
Cc1cc(C)n2nc(CNC(=O)c3c(F)cccc3F)nc2n1 -4.66%
Cc1ccc(-c2cn3cccnc3n2)cc1NC(=O)Nc1ccc(F)cc1 -0.846%
COc1ccc2c(c1)c(=O)c(S(=O)(=O)c1ccc(F)cc1)cn2Cc1ccccc1Cl -9.29%
CC(C)(C)OC(=O)N1CCC(c2c(C(=O)N3CCN(c4ccccn4)CC3)cnn2-c2ccc(F)cc2)CC1 5.89%
COCCNC(=O)CN1C(=O)c2cccnc2Sc2ccccc21 -10.1%
O=C(Cn1ncc2c1-c1ccccc1OC2)N1CCN(c2ccccc2)CC1 -3.67%
COc1cccc2c(C)cc3nnc(SCC(=O)Nc4ccc(C)cc4)n3c12 -0.1%
O=C(c1ccc2c(c1)OCO2)c1cn(Cc2ccc(Cl)cc2)c2ccc(F)cc2c1=O -6.82%
CCCCOc1ccc(C(=O)N2CCCCC2CCN2CCOCC2)cc1 (stereo not drawn) -1.73%
CC1CCC(NC(=O)c2ccc(CS(=O)(=O)c3ccc(Cl)cc3)o2)CC1 (stereo not drawn) -9.93%
CCN(CC)S(=O)(=O)c1ccc(C(=O)NCCSc2c(-c3ccc(F)cc3)[nH]c3ccccc23)cc1 5.98%
CC(=O)c1ccc(NC(=O)CSc2nc(-c3ccc(C)cc3)nc3c2c(=O)n(C)c(=O)n3C)cc1 12.2%
CCn1c(=O)cc(OCC(=O)N2CCN(c3ccc(C)cc3)C(C)C2)c2ccccc21 (stereo not drawn) 0.604%
CCC(=O)Nc1ccc2nc(SCCOc3ccc(C)cc3OC)sc2c1 0%
Cc1cc(Cl)ccc1OCC(=O)N(Cc1sccc1C)C1CCS(=O)(=O)C1 (stereo not drawn) 5.53%
COc1ccc(CNC(=O)c2cnc(N(C)C)nc2)cc1 16.9%
CCCOc1cccc(C(=O)N(Cc2sccc2C)C2CCS(=O)(=O)C2)c1 (stereo not drawn) -6.13%
CC(C)OCCCNC(=O)CN1C(=O)c2cccnc2Sc2ccccc21 -10.6%
O=C(Cn1cc(SCc2c(F)cccc2Cl)c2ccccc21)N1CCCCC1 -22.5%
Cn1c(=O)n(Cc2ccccc2)c(=O)c2c1nc1n2CCN1c1ccccc1 5.08%
CCN(CC)CCNC(=O)CN1N=C(c2ccc(OC)cc2)CCC1=O -0.437%
Cc1cccn2cc(-c3cccc(NC(=O)C(C)C)c3)nc12 -11.9%
CCN(CC)CCNC(=O)C(=O)NCC(c1ccc2c(c1)OCO2)N1CCOCC1 (stereo not drawn) -2.29%
COCc1cc(C)nc2c1C(=O)NC(c1ccc(C)cc1)N2Cc1ccccc1 (stereo not drawn) -11.2%
O=C(CSc1cn(CC(=O)N2CCCCC2)c2ccccc12)NCc1ccccc1 3.41%
CCOc1ccc(-c2nnc(SCC(=O)NCc3ccccc3Cl)o2)cc1 3.73%
CCCN1C(=O)c2[nH]nc(-c3ccccc3)c2C1c1cccc(O)c1 (stereo not drawn) -11.2%
Cc1ccc(NC(=O)c2oc3ccccc3c2NC(=O)Cc2ccccc2)cc1 -2.45%
CCOc1ccc(S(=O)(=O)N2CCN(c3cccc(C(F)(F)F)c3)CC2)cc1OCC -4.05%
COc1ccccc1NC(=O)CSC1=Nc2ccccc2C2=NC(Cc3ccccc3)C(=O)N12 (stereo not drawn) 6.16%
CCc1nc2c(cnn2-c2ccc(C)cc2)c(=O)n1Cc1ccccc1 0.952%
Cc1cc(C)c(S(=O)(=O)NCC(c2ccco2)N2CCOCC2)c(C)c1 (stereo not drawn) 3.82%
CCOC(=O)N1CCc2c(sc3c2c(=O)n(Cc2ccccc2)c(=O)n3Cc2cccc(C)c2)C1 -1%
CCc1ccc(NC(=O)Cn2c(=O)n(CCCCC(=O)NCc3ccccc3Cl)c(=O)c3ccccc32)cc1 2.64%
COc1ccc(NC(=O)c2cc(C)nc3c2c(C)nn3-c2ccc(C)cc2)cc1OC 1.09%
COc1ccccc1-c1nnc(C2CCN(C(=O)c3cccc(C)c3)CC2)o1 4.3%
COc1cccc(Cn2c(=O)n(-c3cccc(Cl)c3)c(=O)c3c4c(sc32)CN(C(C)=O)CC4)c1 -1.71%

From PubChem BioAssay AID493208 (National Center for Advancing Translational Sciences (NCATS), 2011)
